# Laboratory results published in the supplement of paper PMC3334620.
# In all, about 33,000 sequences were measured (“E-score (-0.5 to 0.5)”: median about -0.01, highest 2% from about 0.26 on). The list shows a part of the results.
# Target: Ste12 (UniProt P13574)
# Experiment: PBM E-score (8-mer binding enrichment) (E-score (-0.5 to 0.5)); higher = stronger / more preferred TF binding; most listed sequences are background and not binding sites
# Conditions: protein concentration: 200 nM; construct: GST-DNA-binding domain
# How it was run: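 PURExpress in vitro transcription/translation supplied GST-tagged yeast transcription factors, either full-length or DNA-binding domain. Applied at about 100-200 nM to universal all-10-mer Agilent arrays double-stranded by primer extension, the bound protein was detected with fluorescent anti-GST. E-scores, modified Wilcoxon-Mann-Whitney statistics, were given by the Universal PBM Analysis Suite to ungapped eight-base words pooled with their reverse complements after masliner normalisation.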
row,Sequence,PBM E-score
1,CGTACGTA,-0.139
2,AGCGCAGA,0.00465
3,CGCGAAAC,0.211
4,CAGCCGAA,-0.0783
5,CACGGGAG,-0.186
6,ACGGGCCT,-0.249
7,CGCCGGTA,-0.0112
8,AAACTATT,0.188
9,GATCCGGC,-0.0168
10,GTTAAGTA,0.0631
11,CTCATATA,-0.0135
12,CGCATCCC,0.0337
13,AATATCGA,0.127
14,ACAAGCGT,-0.0567
15,AATAAGGT,0.102
16,ATGATAAG,0.128
17,ATCTAGGA,-0.00986
18,CCAGTGCG,-0.171
19,CATGTTGC,-0.0677
20,ACCAATTC,0.0145
21,CGGCTCCA,-0.0979
22,ATTCCGCC,0.099
23,CAAACAGA,0.12
24,CCACTCGG,-0.281
25,TATACGCA,-0.0776

row,Sequence,PBM E-score
1,AGTCGCGC,0.115
2,CCGATGAC,-0.111
3,CGTCCTGC,-0.0864
4,CGATGACC,-0.0798
5,ACAGCGAT,-0.112
6,ATCTTTAG,0.119
7,AGGCTTAG,-0.021
8,GCAAGGAA,-0.112
9,AATTAAAC,0.241
10,CAAAGTAC,-0.0376
11,CACGAATA,-0.0873
12,AGATTCTA,0.153
13,ACCCGTAT,-0.0492
14,GCGTCTAC,-0.233
15,CAGCCATC,-0.0408
16,AGCGGGCG,-0.089
17,ATACTACG,0.106
18,CTATCCGC,-0.0766
19,GACCCAGC,-0.253
20,CTTATTGA,0.0551
21,CAGGTCGG,0.057
22,ACCACTTA,-0.0266
23,GCAGGAGA,-0.0128
24,ACGCCGAA,-0.0635
25,CGAACCCG,-0.0547

row,Sequence,PBM E-score
1,CAATAGGA,-0.058
2,ACAAACGC,0.13
3,AACATTAC,0.0687
4,CGAAACCA,0.209
5,ACCGATAT,-0.00073
6,CATCAATA,0.177
7,CTCGGTAA,-0.107
8,AGATATCT,-0.158
9,AACAACAC,0.154
10,AAGAGACT,0.00125
11,CCATTCGG,-0.14
12,AAGCTTAT,-0.0154
13,AGATGGGC,-0.127
14,TAGTAATA,0.0871
15,ACTACCAT,-0.0168
16,ACTAGGGA,-0.00094
17,GCTCATTA,0.115
18,ATTACGGC,-0.0675
19,GTTGGAAA,0.0291
20,TACGTTAA,0.0218
21,AGAATCTC,-0.0563
22,CGTACCCA,0.00206
23,AGTGCGAA,-0.204
24,CTAGCCAA,0.145
25,AATACTCT,0.133

row,Sequence,PBM E-score
1,ATCCCTCA,-0.2
2,CATTTGCG,0.0745
3,ACGTCCAG,-0.198
4,AGAAGACT,-0.22
5,ATAATTTA,0.357
6,CGACCGTA,-0.161
7,ACGATTGA,0.158
8,CCACCCGA,0.0148
9,CAGAGTTA,0.0591
10,GAGCCCTC,-0.0722
11,GTGCTATA,-0.0325
12,CTTCAAGC,-0.0689
13,GGGTTCCA,-0.122
14,ACTGCAGG,-0.194
15,AGGCATAT,-0.108
16,AAACAGAG,0.154
17,ATACCTTG,-0.0745
18,ATAGGAAC,-0.153
19,CCGGCCCG,0.00367
20,GGTATACA,-0.0232
21,CCGCCTCC,-0.123
22,GCACCACA,0.0251
23,TAACGAGA,0.00312
24,AGCACCAG,-0.0865
25,AAAACCAT,0.158

row,Sequence,PBM E-score
1,AGATGTGC,-0.154
2,TTATTGAA,0.123
3,CGGTGGCA,-0.148
4,CGACCTTA,0.111
5,AAGTTCTA,-0.064
6,AATAGGTA,0.0275
7,CAATTCTA,0.167
8,ACCTGCAA,-0.0499
9,CGCCAAGA,-0.0545
10,ATACATGA,0.169
11,GCCGCTAA,-0.00666
12,AGCTGTAC,-0.298
13,ATTCATGG,0.0355
14,CATTGAAA,0.247
15,CCCATGGA,-0.0521
16,GAGTCACC,-0.286
17,CGCTTGTA,0.156
18,AAAGGGAG,-0.0327
19,CTATTGTA,0.00583
20,ACCTAGGA,0.0531
21,GCCGGCAA,0.0276
22,ACACTGGG,-0.17
23,ATATCTTA,0.141
24,TCATCTCA,0.197
25,CCGATGTC,-0.0614

row,Sequence,PBM E-score
1,CAGCTAAC,-0.238
2,ACGCCAGG,-0.121
3,AACTTACT,-0.117
4,GGAATGCC,-0.071
5,CCACTGCC,-0.133
6,CTCAAGAA,0.0605
7,CATGGAAC,-0.045
8,CTTCTAGC,-0.0568
9,GGATGAAA,0.395
10,GATAGCGC,-0.00959
11,AGATGGCC,-0.111
12,ACTACTCG,0.186
13,CCGAAGGC,-0.246
14,ATAACGCG,0.0416
15,AACGCAAA,0.112
16,GCATTAAA,0.111
17,CGGCGTAC,-0.171
18,AGAAGTGA,-0.0352
19,ATCTTAGC,-0.177
20,ACAAAAAT,0.288
21,AACACCAT,0.0806
22,AACATATT,0.0908
23,GGTCATTA,-0.0797
24,ACGCCGCT,0.0963
25,CACCGTGA,0.0227

row,Sequence,PBM E-score
1,ACCCGCAG,0.0757
2,AAACCTAC,0.17
3,ATGATCAC,-0.0877
4,ACGCAAGC,-0.203
5,TCTTCTAA,0.194
6,CATAGTCC,-0.238
7,AGAACCAT,-0.0343
8,GATCTGCA,-0.0831
9,TAATTTAA,0.3
10,AGCAGTTA,-0.104
11,AATACCTC,0.0391
12,CTTCTCTA,-0.0467
13,ACTAAGGG,-0.102
14,AGAGTACC,-0.0568
15,AAGCCGCC,-0.16
16,AGAATAGA,0.0769
17,ACCAGCAT,0.118
18,AGGATACT,-0.202
19,ACGCATTA,-0.0496
20,ATTTAGGG,0.0145
21,AGAGGGCT,-0.144
22,AACGTTCT,0.184
23,ATGCCATA,-0.077
24,CCGTCACC,-0.005
25,ACATCAGG,0.0338

row,Sequence,PBM E-score
1,CGGATGTC,0.0627
2,ACGGAAGT,-0.00553
3,GCTGAATA,0.0415
4,AATGGTCA,0.0979
5,TCGACAGA,-0.0176
6,CGCGACCC,-0.0436
7,TGCTAAAA,-0.0127
8,CAATTCTG,0.176
9,GATCGGCA,-0.0748
10,AAAAAAGC,0.143
11,CACTATCC,-0.0005
12,CCGATGGC,-0.0702
13,TAGATCGA,0.0552
14,GGGAGAAC,-0.0492
15,GATTGCTA,-0.106
16,AGCCCTTG,-0.175
17,GTGTGAAC,0.169
18,AACCCTGT,0.11
19,ACTTGCAA,0.185
20,AAGGTAAC,0.0901
21,TGGGCACA,-0.0238
22,ATGGGCAA,0.0141
23,ATTGTTTG,0.184
24,TCAGTTCA,0.0814
25,CAGGGACA,-0.142

row,Sequence,PBM E-score
1,GTATTTCA,0.1
2,AGCTCGGA,-0.0598
3,CGCACGCA,-0.222
4,ACGGATTC,0.0159
5,TATGCGGA,0.0873
6,ATCTACAG,-0.0482
7,CAATGTGA,0.117
8,GAGCTCAC,-0.0841
9,AGACGGGC,-0.0692
10,AAGTCTCT,-0.0975
11,CCTACTTA,-0.00929
12,ACAGACAA,0.144
13,GCTGGCCA,-0.00597
14,ACCATCCT,-0.131
15,ACCAAGGT,-0.0737
16,TCTGTAAA,0.15
17,AAATATCG,0.0668
18,CGCTGGGA,-0.148
19,CGTTGTTA,0.0606
